The other results are listed elsewhere or left out. The full chains were built here from the parent and the listed change. Values near 0.05 are background.
B1: TEV protease; numbered along this chain (parent)
chain: MGESLFKGPRDYNPISSSICHLTNESDGHTTSLYGIGFGPFIITNKHLFRRNNGTLVVQSLHGVFKVKDTTTLQQHLVDGRDMIIIRMPKDFPPFPQKLKFREPQREERICLVTTNFQTKSMSSMVSDTSCTFPSGDGIFWKHWIQTKDGQCGSPLVSTRDGFIVGIHSASNFTNTNNYFTSVPKNFMELLTNQEAQQWVSGWRLNADSVLWGGHKVFMVKPEEPFQPVKEATQL

Variants of: B1
Experiment: raw area under fraction-flipped curve 0-4 h after induction (AUC4h, not background-subtracted), DNA-recorder readout of cleavage of the substrate (dimensionless); higher = more cleavage of the substrate by the protease variant
Settings: temperature: 34 °C; time window: 0-4 h after rhamnose induction
Protocol: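 In vivo DNA recorder in E. coli TOP10(DE3) ΔrhaA at 34 °C. Each TEVp single-site mutant (parent TEVp 0) is paired with a single-site variant of the 7-mer TEVs (canonical ENLYFQ|S). The substrate sits between flexible linkers in a Bxb1-sfGFP-TEVs-SsrA fusion, so cleavage stabilises Bxb1 and speeds flipping of a recombination array, read by NGS. The value is the raw area under the fraction-flipped curve over 0-4 h after rhamnose induction (AUC4h), with ≥20 reads per time point. It is not background-subtracted; inactive controls average about 0.047.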
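Note: Bxb1 expression induced with 0.2% (w/v) L-rhamnose at OD600 near 0.5, cultures sampled hourly, flipped fraction per protease–substrate barcode pair counted by paired-end Illumina sequencing.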

Variant	area with substrate CNLYFQS	area with substrate GNLYFQS	area with substrate HNLYFQS	area with substrate LNLYFQS	area with substrate PNLYFQS	area with substrate RNLYFQS	area with substrate VNLYFQS	area with substrate WNLYFQS	area with substrate YNLYFQS	area with substrate FNLYFQS	area with substrate SNLYFQS	area with substrate TNLYFQS	area with substrate KNLYFQS	area with substrate MNLYFQS	area with substrate NNLYFQS	area with substrate INLYFQS	area with substrate QNLYFQS
S26V	0.0643	0.0777	0.059	0.0578	0.0696	0.06	0.0551	0.061	0.0543								
G28M	0.0556	0.0487	0.0647	0.059		0.0271		0.0596	0.048	0.0452	0.0642	0.0544					
G28H	0.0697			0.0508		0.0655			0.0602	0.0609		0.0797	0.0612				
G28S	0.0598	0.073	0.0603	0.0818	0.066	0.0636	0.075	0.0497	0.0608		0.0675	0.0426	0.0592	0.0562	0.0563		
D11I	0.0614		0.0788		0.0634		0.0742	0.0606				0.0799		0.0621		0.0635	0.066
D11R	0.0666		0.0744	0.0541	0.0707	0.0685	0.0654	0.0607	0.0806	0.0608	0.0642		0.0821	0.072		0.0493	
D11K	0.0647		0.0685	0.0645	0.0634		0.0704	0.0581	0.0487			0.0565	0.0576		0.0721	0.0621	0.0556
L5Q	0.0685	0.0705	0.0569	0.0605	0.0726		0.0662		0.0291			0.032	0.0721		0.0731	0.0672	
P40A	0.071	0.0619	0.0667	0.0711	0.0648	0.075	0.0646	0.057	0.0544	0.0694	0.0631		0.0707	0.0663	0.0708	0.0956	
T23Q	0.0585	0.0625		0.0406	0.0755		0.0741	0.0526			0.0639	0.0599	0.0849	0.126	0.0683	0.0717	0.0731
T23M	0.0712		0.0615	0.0701	0.062		0.0877	0.0599	0.0559	0.0704		0.0592	0.066	0.0527	0.0556	0.0521	0.0509
I19T	0.0897		0.0778	0.0686				0.0463		0.0664				0.0626	0.0658		
I19Q	0.0691	0.0667	0.0614		0.0681	0.0628	0.0678	0.0394	0.0647	0.0572		0.0655			0.0735	0.0736	0.0661
H21S	0.0678	0.0674	0.0711	0.0546	0.0651		0.049	0.0602	0.0449	0.0835		0.0642	0.074	0.0647	0.0568	0.0569	
H21K	0.0517	0.0595	0.0624	0.0749		0.0375	0.0765	0.0624	0.0662	0.0584		0.0472		0.0589		0.0608	0.0591

— the supplement of paper PMC12217912
